Data taken from PubChem BioAssay AID1645882 (National Center for Advancing Translational Sciences (NCATS), 2021).
The campaign covered roughly 16,000 compounds. About 120 (0.75%) were called active. Roughly 4% stayed inconclusive and do not appear here. Calls follow the shape of the dose curve; as a rule, active = well fitted inhibition curve with a large enough effect; inconclusive = small, poorly fitted or top-dose-only effect; inactive = no such curve, though single readings can be large or run the other way. This is one part of the list.

What follows are molecules tested against Rap guanine nucleotide exchange factor 3 (Homo sapiens) (UniProt O95398) (assay: Validation qHTS for antagonist of cAMP-regulated guanine nucleotide exchange factor 3 (EPAC1)). Conditions: EPAC1 Rap1B-BODIPY-GDP exchange, fluorescence; series mostly up to 150 µM; activity change, negative = inhibition: at the top concentration.
Excerpt: Assay Provider (PI): Xiaodong Cheng Ph.D.
The University of Texas Medical Branch, […], TX
In multi-cellular eukaryotic organisms, the effects of cAMP are transduced by two ubiquitously-expressed intracellular cAMP receptors, the classic protein kinase A/cAMP-dependent protein kinase (PKA/cAPK) and the more recently discovered exchange protein directly activated by cAMP/cAMP-regulated guanine nucleotide exchange factor (EPAC/cAMP-GEF). Both PKA and EPAC are ubiquitously expressed in all tissues, and an increase in intracellular cAMP levels will lead to the activation of both PKA and EPAC. Therefore, careful dissections of the individual role and relative contribution of EPAC and PKA within the overall cAMP signaling in various model systems are critical for further elucidating the mechanism of cAMP signaling. To date no EPAC-specific antagonists and agonist, as well as isoform-specific agonists have been reported, and developing EPAC-specific pharmacological probes to determine the physiological functions that EPAC play in the overall cAMP-mediated signaling remains a major challenge within the research field. Furthermore, identified regulators of EPAC may lead to new mechanism-based therapeutic strategies specifically targeting the EPAC / cAMP-signaling components as EPAC has been implicated to play important roles in major human pathological conditions such as diabetes, heart disease, and cancer.
This qHTS will be used to screen the Molecular Libraries Small Molecule Repository (MLSMR) as a concentration-titration series using the NCGC unique quantitative screening (qHTS) platform to find activators for EPAC1. In addition, this assay will also be used as a counterscreen for the EPAC2 qHTS. This fluorescent based assay is developed and validated for EPAC1 that measures exchange using EPAC effector Rap1 complex with BODIPY-GDP, a GDP analog with a tethered fluorophores. Activators are identified by monitoring the change in fluorescence signal as the exchanged free BODIPY-GDP has a reduced fluorescence compared to Rap1-bound BODIPY-GDP. Increase in signal (activation) is the desired outcome for the EPAC1 agonist while no activity in this assay is desired for the EPAC2 agonist counterscreen.
[1] de Rooij, J., Zwartkruis, F. J., Verheijen, M. H., Cool, R. H., Nijman, S. M., Wittinghofer, A., and Bos, J.L. (1998) Nature 396, 474-477.
Briefly, three uL of reagents (100 nM EPAC1, 250 nM RAP1B-BODIPY-GDP, 50 uM GDP) were dispensed into a 1536-well Greiner black solid-bottom medium binding assay plate. Controls and test compounds (23 nL) were transferred to the plate via a Kalypsys pin tool equipped with a 1536-pin array. The plates were centrifuged at 1,000 rpm for 15 seconds followed by 5 minute incubation at room temperature. The assay plates were read at 5 minute intervals for 30 minutes in the ViewLux plate reader using 480nm excitation and 540nm emission filters. The results were normalized to the […] positive control ATA and DMSO.
Also: nearly all actives have a fitted effect of over 75% in size.
Potency is read from the fitted curve at half-maximal effect.

Chain of UniProt O95398 (O95398 whole entry, looked up): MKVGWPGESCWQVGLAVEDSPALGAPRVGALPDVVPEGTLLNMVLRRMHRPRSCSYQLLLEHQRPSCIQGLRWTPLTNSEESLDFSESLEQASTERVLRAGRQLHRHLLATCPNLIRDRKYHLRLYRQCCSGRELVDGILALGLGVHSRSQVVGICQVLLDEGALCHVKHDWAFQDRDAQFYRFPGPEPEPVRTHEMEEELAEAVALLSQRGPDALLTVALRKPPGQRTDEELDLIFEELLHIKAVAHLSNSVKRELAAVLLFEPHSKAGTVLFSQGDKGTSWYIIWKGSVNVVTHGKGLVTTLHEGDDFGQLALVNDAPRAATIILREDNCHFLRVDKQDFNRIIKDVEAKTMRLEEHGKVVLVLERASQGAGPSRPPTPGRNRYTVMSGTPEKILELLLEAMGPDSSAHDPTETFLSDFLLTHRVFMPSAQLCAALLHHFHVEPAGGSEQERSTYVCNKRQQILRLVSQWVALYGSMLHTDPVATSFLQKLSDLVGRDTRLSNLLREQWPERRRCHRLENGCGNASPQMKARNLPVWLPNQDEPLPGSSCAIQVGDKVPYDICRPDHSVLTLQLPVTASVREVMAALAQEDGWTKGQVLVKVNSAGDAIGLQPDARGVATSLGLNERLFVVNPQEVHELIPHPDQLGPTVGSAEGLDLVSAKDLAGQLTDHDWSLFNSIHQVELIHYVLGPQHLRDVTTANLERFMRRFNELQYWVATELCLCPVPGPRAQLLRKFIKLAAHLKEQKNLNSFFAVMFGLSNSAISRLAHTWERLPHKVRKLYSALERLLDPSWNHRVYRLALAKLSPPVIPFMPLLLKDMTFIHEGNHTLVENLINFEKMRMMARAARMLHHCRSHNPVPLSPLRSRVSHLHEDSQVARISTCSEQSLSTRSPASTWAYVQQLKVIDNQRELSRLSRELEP

Row | SMILES | activity change, negative = inhibition | Potency
1 | CC(C)OC(=O)Nc1ccc2nc(-c3cscn3)[nH]c2c1 | inactive: 13.8% | –
2 | COc1cccc2c(=O)c3ccoc3n(C)c12 | inactive: 5.74% | –
3 | CN1CCCC1CCO[C@@](C)(c1ccccc1)c1ccc(Cl)cc1 (some centres undefined) | inactive: 10% | –
4 | CC(=O)OC1CCC2(C)C(=CCC3C2CCC2(C)C3C[C@@H]3O[C@]32C(C)=O)C1 (some centres undefined) | inactive: 4.16% | –
5 | CN(Cc1ccco1)c1ncnc2ccc(-c3cccc(NS(C)(=O)=O)c3)cc12 | inactive: 1.98% | –
6 | CC1OC(OCC2OC(Oc3c(-c4ccc(O)c(O)c4)oc4cc(O)cc(O)c4c3=O)C(O)C(O)C2O)[C@@H](O)C(O)C1O (some centres undefined) | inactive: -17.9% | –
7 | Cn1cc(C2=C(c3ccc(Cl)cc3Cl)C(=O)NC2=O)c2ccccc21 | inactive | –
8 | O=c1c(CCc2ccccc2)nc2cnc(Nc3ccccc3)nc2n1C[C@H]1CCCO1 | inactive: 13.2% | –
9 | CN(C)CC(C)(C)CNC(=O)c1cnn(-c2nccc(-c3ccc4c(c3)OCO4)n2)c1-c1ccco1 | inactive: 25.7% | –
10 | Cn1c(SCC2CCCO2)nnc1C1CCN(Cc2ccccc2O)CC1 (centres undefined) | inactive: 13.1% | –
11 | COc1ccc(-c2c(-c3cc(OC)c(OC)c(OC)c3)noc2C)cn1 | inactive: 1.73% | –
12 | CC(=O)N1CCC2(CCN(Cc3cc(C(F)(F)F)cc(C(F)(F)F)c3)CC2)CC1 | inactive: 1.58% | –
13 | CCC[C@H]1COCCS(=O)(=O)N1Cc1cccc(F)c1 | inactive: -10.5% | –
14 | O=C(Oc1ccccc1)c1cccc(C(=O)Oc2ccccc2)c1 | inactive: 32.9% [at 320 µM] | –
15 | Cc1ccc2c(/C=C/c3c[nH]c4ccccc34)ccnc2c1C | inactive: 5.61% | –
16 | CC(=O)Nc1ccc(S(=O)(=O)Nc2ccc([N+](=O)[O-])cc2)cc1 | inactive: 15.9% | –
17 | CN(C)C(=O)c1ccc(-c2ccc3ncnc(NCc4ccccc4)c3c2)cc1 | inactive: 3.59% | –
18 | O=C(c1ccncc1)N1CCC[C@@]2(CCN(Cc3cc(C(F)(F)F)cc(C(F)(F)F)c3)C2)C1 | inactive: -19.2% | –
19 | Cc1noc(C)c1-c1nccc(N2CCOCC2)n1 | inactive: 8.6% | –
20 | CCc1cc(C(N)=S)ccn1 | inactive | –
21 | Cc1cc(=S)[nH]c2ccccc12 | inactive: 16.7% | –
22 | CN(C)C(=O)c1ccc(-c2cncnc2NC2CCNCC2)cc1 | inactive: -11.3% | –
23 | O=C(CCc1c[nH]c2ccccc12)N1CCC(n2c(C3CCCO3)nc3cc(C(F)(F)F)ccc32)CC1 (centres undefined) | inactive: 3.75% | –
24 | O=C(c1csnn1)N1CCC2(CC1)CCN(c1cccc(-c3ccccc3)c1)CC2 | inactive: 0.228% | –
25 | Cc1ccc(S(=O)(=O)NC(=O)NC2CCCCC2)cc1 | inactive: 4.4% | –

Row | SMILES | activity change, negative = inhibition | Potency
26 | COc1cc2nc(N3CCN(C(=O)OCc4ccccc4)C(C(=O)NC(C)(C)C)C3)nc(N)c2cc1OC (centres undefined) | inactive: 7.27% [at 75.8 µM] | –
27 | Cc1noc(C)c1-c1cc(N2CCN(C)CC2)ncn1 | inactive: -3.25% | –
28 | CC(=O)Nc1c(I)c(NC(C)=O)c(I)c(C(=O)O)c1I | inactive: 31.7% | –
29 | Cc1noc(C)c1C(=O)N1CCC2(CC1)CN(C(=O)Nc1cccc(F)c1)C2 | inactive: 12.4% | –
30 | CC[C@H](C)C(=O)O[C@H]1CCC=C2C=C[C@H](C)[C@H](CC[C@@H]3C[C@H](O)CC(=O)O3)[C@H]21 | inactive: -20.1% | –
31 | CC(C)(C)NCC(O)CSc1nc(-c2ccc(C(N)=O)s2)cs1 (centres undefined) | inactive: 7.1% | –
32 | Cn1cnc2c(ncn2[C@@H]2O[C@H](CO)[C@@H](O)[C@H]2O)c1=N | inactive: 21.2% | –
33 | Cc1cccc(CNc2ccnc(-c3cccnc3)n2)c1 | inactive: 3.19% | –
34 | NC(=O)c1ncn([C@@H]2O[C@H](CO)[C@@H](O)[C@H]2O)c1O | inactive | –
35 | CN(C)C(=O)c1ccc(-c2nccc(N(C)Cc3ccco3)n2)cc1 | inactive: 10.4% | –
36 | CC(C)C(NC(=O)c1ccoc1)c1nnc2n1CCN(C(=O)/C=C/c1ccc(F)cc1)CC2 (centres undefined) | inactive: 17.6% | –
37 | CCc1nc2cc(C(=O)N3CCCN(C=O)CC3)cc(NC(=O)c3ccccc3OC)c2n1C | inactive: 0.16% | –
38 | C[C@H](CCC(=O)O)[C@H]1CC[C@@H]2[C@H]3CC[C@H]4C[C@H](O)CC[C@]4(C)[C@@H]3CC[C@@]21C | inactive: -12.1% | –
39 | CN1CCN(C(c2ccccc2)c2ccc(Cl)cc2)CC1 (centres undefined) | inactive: 17.1% [at 75.8 µM] | –
40 | CCc1oc2ccccc2c1C(=O)c1cc(I)c(O)c(I)c1 | – | active: 56.2 µM
41 | COc1ccc(-c2nc3cnc(OC)nc3n(-c3ccccc3)c2=O)cc1 | inactive: 8.13% | –
42 | CC(C)=CCC/C(C)=C/CC/C(C)=C/CCC(=O)OC/C=C(\C)CCC=C(C)C | inactive: -26.1% | –
43 | Cc1ccc(C(C)C)cc2c(C)ccc1-2 | inactive | –
44 | COCCn1c(=O)c(-c2cc(F)cc(F)c2)nc2cnc(Oc3cccc(Cl)c3)nc21 | inactive: -2.8% | –
45 | Cc1cccc(Nc2cc(Cl)nc(SCC(=O)O)n2)c1C | inactive | –
46 | CC(C)CN1CCCC2(CCN(C(=O)c3cc(C(F)(F)F)cc(C(F)(F)F)c3)CC2)C1 | inactive: -7.73% | –
47 | COc1ccccc1-c1cc(-n2ccnc2)ncn1 | inactive: 10.7% | –
48 | COc1ccc(CC(N)C(=O)NC2C(O)[C@H](n3cnc4c(N(C)C)ncnc43)O[C@@H]2CO)cc1 (some centres undefined) | inactive: 0.0514% | –
49 | O=C(N/N=C/c1ccc([N+](=O)[O-])o1)c1ccc(O)cc1 | inactive: 382% [at 75.8 µM] | –
